From the supplement of paper PMC10126150
Values marked as one replicate rest on one cluster of the flow cell; about a third of the high ones do not repeat.

Test system: ATP
Test: switch fluorescence ratio, 500 uM ATP over buffer (Cy3 cluster intensity, sum of 5 cycles each) (fold (ratio)); higher = stronger signal-on switching upon ATP binding; sequences stand for … in TCGTCGGCAGCGTCAGATGTGTATAAGAGACAGTTTTTTTTTTTTTTTTTTTTTTTTT…TC
Conditions: aptamer strand: ATP DNA aptamer (quencher-CACCTGGGGGAGTATTGCGGAGGAAGG + anchor), 100 nM annealed; ATP concentration: 500 uM; one replicate
Method in brief: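 Cy3-labelled switching-strand clusters on a modified Illumina MiSeq flow-cell were annealed to 100 nM quencher-labelled ATP aptamer, imaged in selection buffer, then imaged after 15 min with 500 uM ATP at 22 °C. Five buffer/ATP cycles ran, with NaOH stripping and re-annealing between them. The fluorescence ratio is summed target-cycle over summed buffer-cycle Cy3 intensity per cluster, averaged per switch-domain sequence. Clusters outside 100-1000 RFU were excluded.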
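Further: ATP exposure 15 min at 22 °C before imaging.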

With TCTTTGATGT the switch fluorescence ratio was 1.03.

Work on CAGCGCTGA yielded a switch fluorescence ratio of 1.04.

Work on CGATTATGGC yielded a switch fluorescence ratio of 1.03.

TACACCGATT was tested, and the switch fluorescence ratio was 0.993.

In the case of CCCTCCGTG, the switch fluorescence ratio is reported as 3.31.

Sequence AACGGGCGCG has a switch fluorescence ratio of 0.979.

For AGACCCGGCA, the switch fluorescence ratio was 1.07.

CGTTTTGACT showed a switch fluorescence ratio of 1.

GCTTTGGTCT showed a switch fluorescence ratio of 1.02.

Work on CGACTGCCCC yielded a switch fluorescence ratio of 1.21.

Work on ATAGCTCT yielded a switch fluorescence ratio of 0.98.

AAGTCTGGGT was tested, and the switch fluorescence ratio was 1.01.

TGGAGGGCGG was tested, and the switch fluorescence ratio was 1.01.

Work on ATATGGGTT yielded a switch fluorescence ratio of 0.994.

AAGCAGAACT gave a switch fluorescence ratio of 1.17.

ATCTAAGGGT was tested, and the switch fluorescence ratio was 0.97.

Sequence ATGCATGCGA has a switch fluorescence ratio of 0.98.

Work on CAGCCTATGT yielded a switch fluorescence ratio of 0.937.

ATTAAACGAT showed a switch fluorescence ratio of 1.05.

CGGATCTCGA showed a switch fluorescence ratio of 1.

For TAAAGGTGGG, the switch fluorescence ratio was 0.999.

Work on TTACATTATT yielded a switch fluorescence ratio of 1.01.

For GAAGGGCTCG, the switch fluorescence ratio was 0.949.

GCGCTCTAGT gave a switch fluorescence ratio of 0.982.

ACATTAACTG gave a switch fluorescence ratio of 1.1.

With CCTGGATCTT the switch fluorescence ratio was 1.01.

Work on AGGGATCACA yielded a switch fluorescence ratio of 1.03.

For CTCGCCCCCT, the switch fluorescence ratio was 1.13.

In the case of GACTCACGAG, the switch fluorescence ratio is reported as 1.01.

For ACATCTCGCG, the switch fluorescence ratio was 0.977.

For CGGTGTTTCG, the switch fluorescence ratio was 0.97.

CAAACTACCC was tested, and the switch fluorescence ratio was 1.23.

In the case of TTGAGCCATG, the switch fluorescence ratio is reported as 1.06.

In the case of AAGGCGACGG, the switch fluorescence ratio is reported as 0.968.

With TGCCAGCGCG the switch fluorescence ratio was 0.998.

Work on GCCATTGGGT yielded a switch fluorescence ratio of 0.972.

GACGGTGG was tested, and the switch fluorescence ratio was 0.957.

With AATGAGCGTA the switch fluorescence ratio was 1.06.

TCGGCTCAGG showed a switch fluorescence ratio of 1.06.

With GTGTGATAG the switch fluorescence ratio was 0.985.

For GGTATAAGA, the switch fluorescence ratio was 1.09.

CAATCTTATA gave a switch fluorescence ratio of 0.971.

ACGATCGAAT was tested, and the switch fluorescence ratio was 1.11.

GAACGGGACC gave a switch fluorescence ratio of 1.4.

For TTTCCAGGTC, the switch fluorescence ratio was 1.08.

Sequence AAGCTGCAAC has a switch fluorescence ratio of 1.18.

CGATAATA showed a switch fluorescence ratio of 1.04.

TCATCAAGCT showed a switch fluorescence ratio of 1.03.

In the case of CTAGTCCGTA, the switch fluorescence ratio is reported as 0.939.

GATTATTCTA was tested, and the switch fluorescence ratio was 0.992.

Work on GGGAGGTTTG yielded a switch fluorescence ratio of 0.945.

In the case of TCCTTGGATT, the switch fluorescence ratio is reported as 0.978.

TTTGGTTAAA was tested, and the switch fluorescence ratio was 1.02.

For CAGCTCTATG, the switch fluorescence ratio was 1.03.

With TCTGTTTTCC the switch fluorescence ratio was 1.02.

TAGTTGTGG was tested, and the switch fluorescence ratio was 0.98.

In the case of GGCAGGAAAC, the switch fluorescence ratio is reported as 0.934.

ACGTAGGGGC was tested, and the switch fluorescence ratio was 1.1.

Work on GCGTGACTTG yielded a switch fluorescence ratio of 0.992.

For TGATTCAAAC, the switch fluorescence ratio was 0.961.

With CGCGTTTGC the switch fluorescence ratio was 1.1.

In the case of TAAAACCTAT, the switch fluorescence ratio is reported as 1.21.

Sequence AATTAAAAT has a switch fluorescence ratio of 0.998.

TTATCCGATT gave a switch fluorescence ratio of 0.999.

AAGTACCTTT was tested, and the switch fluorescence ratio was 1.2.

Sequence GTTGCGCAGA has a switch fluorescence ratio of 0.973.

ACAAACTTTA showed a switch fluorescence ratio of 1.09.

CGTGAACACC showed a switch fluorescence ratio of 0.957.

For GGGTGAGGCT, the switch fluorescence ratio was 0.981.

GCGATTGTGA showed a switch fluorescence ratio of 1.05.

TTTATAGCCC gave a switch fluorescence ratio of 0.99.

Work on GGACACCGGT yielded a switch fluorescence ratio of 1.08.

AAAAGGGTAT showed a switch fluorescence ratio of 1.01.

For GCGGCCCGAA, the switch fluorescence ratio was 1.02.

TAAGGGTTCG was tested, and the switch fluorescence ratio was 0.922.

In the case of GTCCTAACTC, the switch fluorescence ratio is reported as 1.02.

Sequence GAAGTAAAAC has a switch fluorescence ratio of 1.52.

In the case of CTGGTTATGA, the switch fluorescence ratio is reported as 1.

Sequence CTGAATACGA has a switch fluorescence ratio of 1.42.

GTTGTATAGT showed a switch fluorescence ratio of 0.964.

CATGATTGGC was tested, and the switch fluorescence ratio was 1.

AATTAACATT was tested, and the switch fluorescence ratio was 1.04.

Sequence TACTGCTTAG has a switch fluorescence ratio of 1.01.

TTTTGAGGCG was tested, and the switch fluorescence ratio was 0.995.

CGGGAGACAC was tested, and the switch fluorescence ratio was 1.03.

Sequence CTTATGGCCA has a switch fluorescence ratio of 0.972.

GAGTATAGCT showed a switch fluorescence ratio of 1.05.

TCGTCAGATG showed a switch fluorescence ratio of 0.965.

Work on ACGGATCGGG yielded a switch fluorescence ratio of 1.02.

Sequence ATCGTATTAG has a switch fluorescence ratio of 0.964.

With GAACTCTCTG the switch fluorescence ratio was 1.02.

For GGGGGAATCT, the switch fluorescence ratio was 0.97.

TTGAACATGC showed a switch fluorescence ratio of 1.17.

With TCAGATCGGG the switch fluorescence ratio was 1.04.

In the case of TCAGGCATGG, the switch fluorescence ratio is reported as 0.954.

CGAAAACGCG gave a switch fluorescence ratio of 1.03.

With TGTTGTTAAG the switch fluorescence ratio was 0.988.

CAAGGGTTTT was tested, and the switch fluorescence ratio was 0.984.

Work on GCTAGAAACT yielded a switch fluorescence ratio of 1.03.

Work on CGTTCAGATT yielded a switch fluorescence ratio of 1.02.

In the case of AATATAAGAT, the switch fluorescence ratio is reported as 1.03.

In the case of AGCAGACGAG, the switch fluorescence ratio is reported as 1.02.

For CAGTTCGTCG, the switch fluorescence ratio was 0.927.

In the case of GACATACAAA, the switch fluorescence ratio is reported as 1.26.

GCAGCTGCTG gave a switch fluorescence ratio of 1.01.

GCGCGAATAT gave a switch fluorescence ratio of 1.16.

ACAGTGCTGG was tested, and the switch fluorescence ratio was 0.992.

CCAGGCACTT showed a switch fluorescence ratio of 1.

With TGGAGGCGTT the switch fluorescence ratio was 0.957.

ATCGATAAGC showed a switch fluorescence ratio of 0.973.

With CGTACCCCGA the switch fluorescence ratio was 1.02.

CAGGTGTTAA showed a switch fluorescence ratio of 1.1.

Sequence GGGCATGCTA has a switch fluorescence ratio of 0.988.

For TCATGTTGGG, the switch fluorescence ratio was 1.03.

Sequence TGTGGGGACT has a switch fluorescence ratio of 0.97.

Work on TTTTGACTAA yielded a switch fluorescence ratio of 1.03.

Sequence GGCTGCCTAA has a switch fluorescence ratio of 0.95.

In the case of AACGCCTATA, the switch fluorescence ratio is reported as 1.05.

Sequence GAGGTGGCCG has a switch fluorescence ratio of 1.05.

In the case of CTCGGAGCCA, the switch fluorescence ratio is reported as 1.09.

AAATACAGTT showed a switch fluorescence ratio of 0.984.

Work on GGGACTAGCG yielded a switch fluorescence ratio of 0.988.

Sequence TAAGAGAATA has a switch fluorescence ratio of 0.984.

Sequence TGTCGGACGA has a switch fluorescence ratio of 0.957.

CTGTTCTATG showed a switch fluorescence ratio of 0.968.

For ACAGAGCAAA, the switch fluorescence ratio was 1.05.

For ATGCTCAGGG, the switch fluorescence ratio was 1.08.

CGGCGCAGCA showed a switch fluorescence ratio of 1.02.

For AGTGGGCGA, the switch fluorescence ratio was 1.02.

For CGGGTTCCAT, the switch fluorescence ratio was 1.05.

For CGAACCGGAA, the switch fluorescence ratio was 1.21.

TGCTACGCC showed a switch fluorescence ratio of 1.24.

For TGTAGTTCGT, the switch fluorescence ratio was 0.977.

In the case of TGGCTCAATT, the switch fluorescence ratio is reported as 0.966.

For AGAACCATTT, the switch fluorescence ratio was 0.989.

Work on GGAGAACAGC yielded a switch fluorescence ratio of 1.01.

In the case of TTTACGGCTC, the switch fluorescence ratio is reported as 1.22.

AACCTAGCTT gave a switch fluorescence ratio of 1.07.

With GGTCAGTTCG the switch fluorescence ratio was 0.995.

In the case of ATCCGCGCCA, the switch fluorescence ratio is reported as 1.76.

With GTTGTTTTAC the switch fluorescence ratio was 1.

For CTGTGTTGCG, the switch fluorescence ratio was 0.962.

TAAGCCACGT was tested, and the switch fluorescence ratio was 1.01.

For GATGTGTATC, the switch fluorescence ratio was 0.981.

In the case of TAATATTTCT, the switch fluorescence ratio is reported as 0.985.

With CATTACATCC the switch fluorescence ratio was 1.07.

Work on ACAGGGGCA yielded a switch fluorescence ratio of 1.08.

With CATAGTTCGG the switch fluorescence ratio was 0.998.

In the case of GGGTTAGCCG, the switch fluorescence ratio is reported as 1.

Work on TAGTAAAACT yielded a switch fluorescence ratio of 1.02.

For GGGTGTTAAG, the switch fluorescence ratio was 0.997.

In the case of TGTGTGTTA, the switch fluorescence ratio is reported as 1.01.

In the case of CTAAGCACAT, the switch fluorescence ratio is reported as 1.32.

CAGAATGTAT gave a switch fluorescence ratio of 0.973.

For TAGCTGTTC, the switch fluorescence ratio was 1.1.

For CGCACGTCCA, the switch fluorescence ratio was 1.1.

For TGACAATTTG, the switch fluorescence ratio was 0.942.
